Test results taken from the supplement of paper PMC10126150.
Sequences with one replicate were seen in a single cluster, so their values are uncertain.

Tested on: ATP
Assay: switch fluorescence ratio, 500 uM ATP over buffer (Cy3 cluster intensity, sum of 5 cycles each) (fold (ratio)); higher = stronger signal-on switching upon ATP binding; sequences stand for … in TCGTCGGCAGCGTCAGATGTGTATAAGAGACAGTTTTTTTTTTTTTTTTTTTTTTTTT…TC
Conditions: aptamer strand: ATP DNA aptamer (quencher-CACCTGGGGGAGTATTGCGGAGGAAGG + anchor), 100 nM annealed; ATP concentration: 500 uM; one replicate
In short: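 Cy3-labelled switching-strand clusters on a modified Illumina MiSeq flow-cell were annealed to 100 nM quencher-labelled ATP aptamer and imaged first in selection buffer, then after 15 min with 500 uM ATP at 22 °C. NaOH stripping and re-annealing separated each of five buffer/ATP cycles, and clusters outside 100-1000 RFU were excluded. The fluorescence ratio sums target-cycle Cy3 intensity over buffer-cycle Cy3 intensity per cluster and averages it per switch-domain sequence.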
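Further: ATP exposure 15 min at 22 °C before imaging.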

Sequence	switch fluorescence ratio
GATACATTGA	1.04
ACTAACTATG	1.1
ATCATAAAAC	1
TGCGAGATGG	0.954
GGGAAAAGAC	1.07
AAAACGCTC	1.02
ACTTCATTCG	1.67
ACACGGGCAC	1.32
GGGAGGGCTC	0.988
CCTCGACCG	1.03
TGATCATCGG	0.979
GTGACAGTAT	1.02
GCGCACCGCC	1.01
TTCAAAAGCT	0.997
TGTGGGACTG	1.01
TTCAGGCAAG	1.78
ATCATAGACG	1.05
AATAAAACGT	1.07
GAATAGAAAG	0.978
CGAAAGTGCG	1.01
GCGTCCTTCT	1.02
CACATGCATT	1.05
GCGACCTTCA	2.08

Sequence	switch fluorescence ratio
GTCCTAGGCA	0.983
TAGATTAACT	0.977
TCGAGTAATT	1.03
TGTCAAGAGT	1.03
TTCGCTTAAG	0.97
ATGTGTCTGA	1
TAATGGCTGC	1.05
CGCCGCGAAG	1.91
TTTAAACGTG	1.02
TGGCATTACC	1.14
TCTTATGTAT	1.03
CTCACAGGAT	1.06
ACCTTAAGCT	1.06
CTTAAACTTC	1.05
TTACGGCAGA	1.08
GGGCAATATA	1.25
CGGTTTGTTC	1.06
ATGTGGTGG	0.958
TCATCACATT	1
GTCACAATGT	1.01
GGAGGCGTAA	0.992
CATTCAGATC	0.985
GGTATCATAA	0.987

Sequence	switch fluorescence ratio
GGCTGTAAGC	1.03
TAATACAGCT	1.01
AAAACGTTAG	1
TTAGAGTCGC	1.01
TAAATAGGAA	1.01
GGAGGGGTAA	1.02
TTCTATCGAC	1.04
ATGATGGCGG	1.01
ACTGATGCAA	1.19
CAAGGAGGAA	1.01
TTAGTGAATT	1.02
CCCCAAGGTC	3.86
GGTCTGTGAC	0.979
GCCGGTGGTT	1.03
AAGTTCCGTA	0.991
AGAATATACA	1.03
GATCTGCACT	1.18
TGATGTCAGG	1.04
ACTAATGATG	0.947
GCACGCCTCG	1.04
TTAATCTG	1.04
CCAACTGGAT	0.992
AGTGTGTTCA	1.01

Sequence	switch fluorescence ratio
TCAAACGGAC	1.36
CGAGGAGGAC	1.06
ATGTCACAAT	1.03
CACACTGGGT	1.03
TTGCTAATAG	1.1
TTTGTGGCGG	0.942
AAGAACAGGT	1.05
CGCTATAT	1.57
CAGCTCCCAA	2.32
CAATGCCAGG	1.22
TTAGAACCAT	1.04
GGATAGACAG	0.992
CACATGCA	0.997
AGCTTGTCAC	1.08
TGTAAGGCAG	1
GGTTGTCGCA	1.13
AGCGCAGGGG	1.04
CAAATTTTCG	0.954
CGCAGTGGGG	1.07
TAATTAAT	1.01
AAAACCATCT	1.04
ATTCCCACAG	2.24
TTCCTGACAT	1.01

Sequence	switch fluorescence ratio
AAAGGAATGC	1.33
TATCATCCAG	0.964
CTTATGAAAA	0.985
GTTATCGTAT	1.01
GGGTCAGCAT	1.02
ATCGTTCTGG	0.975
TGCGGAGGAG	0.994
AAGAATGGTA	1.02
CATGGGTTA	0.969
GGGAAAGCAA	1.31
CGACTGAGAC	1.55
TAATTTACCC	1
GCTATTGTCA	1.05
TAGATGCAAA	1.01
GTTGACCGTG	0.976
ATTACCCCTG	1.15
GCGGCAATGT	1.16
CGGCCTCGGG	0.978
ATGTACTGAC	1.31
CAGCCCAAGA	1.1
CGAGGGTAA	1.05
GCACATTGT	1.09
CAGATGGCCT	1.02

Sequence	switch fluorescence ratio
ACGGTTTAAG	1.03
AGTGAGGAAG	0.994
ATTGGTGCAT	1
GATCATGTAT	1.02
GAGGTCCTAA	0.996
TCAGTGGGTA	0.961
ATTTAGAAAG	0.996
AGTATATACT	0.987
CTTGGTGTTT	0.983
TAGTTAATTA	1
GGCTCTTTCA	0.974
CCTCATGGGA	1.06
AAGCTATG	1.01
ACAGCTCTTG	0.969
CAAGGAGGTG	1.05
CGTATTATA	0.952
CCACTGGCTG	1.08
CTGCATGGCG	1.08
GCTAGAACGC	0.975
CTCCCCCACT	2.42
CGCTTAACGG	1.01
CGCCGTGCTT	1.03
CGGTCGGAAA	1.01

Sequence	switch fluorescence ratio
AAATTCCAGG	1.25
GGGTATTCAG	0.972
ACCACTTGCT	0.987
ATCTAGAAGG	0.943
AGTTCGAAAA	1.03
TAAGGCGGAA	1.22
CCCTGGTTTT	1.33
GGGTTACTG	1.03
TGTCCACCTC	0.997
TGTTCAGGG	0.972
AATGACTACG	1.02
TTTTGGATG	1.02
CCTTATAAAA	0.996
TTATCAGCTC	0.979
AGGGCGCGTC	1
GACCCTAGCA	1.09
ATCTACGAAG	0.994
AGTGGCCGCC	0.981
TTTGAAGA	1.01
GGGATGTAG	1
